Test results as given in PubChem BioAssay AID686970 (National Center for Advancing Translational Sciences (NCATS), 2013).
In all, about 360,000 compounds went through this assay and about 6,000 (1.7%) were called active. Inconclusive means that the source gave no clear call. Such entries were picked first, then a sample of the others. Calls come from the whole dose curve; as a rule, active = well fitted cell-killing curve with a large enough effect; inconclusive = small, poorly fitted or top-dose-only effect, or effect the other way; inactive = flat fitted curve, though single readings scatter. Potencies of inconclusive entries are left out as doubtful fits.
Potency is the fitted concentration of half-maximal effect; tags give direction and shape of the fitted curve.

Assay: qHTS for induction of synthetic lethality in tumor cells producing 2HG: qHTS for the HT-1080-NT fibrosarcoma cell line;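 note: NT is the 2HG producing partner of a matched IDH1 knockdown line; nearly all actives have a fitted effect of over 55% in size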;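 for activity, negative = less viability: 0% = DMSO-treated cells and -100% = media-only wells without cells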
Settings: HT-1080-NT fibrosarcoma viability, CellTiter-Glo ATP luminescence, 48 h; activity, negative = less viability: at 46.1 µM (top of the series) unless noted
Summary of the method: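 Read-out is CellTiter-Glo luminescence after 10 minutes at room temperature, following 48 hours' compound treatment of HT-1080-NT cells (750 cells/well, RPMI, 5% FBS, 37 degrees C).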
With `CCCn1c(NCc2ccccc2NS(=O)(=O)c2ccc(C)cc2)nc2ccccc21` the Potency was inconclusive [cytotoxic, partial curve].
In the case of `CCOC(=O)C(=CNc1cc(C)ccc1-n1cccc1)C(=O)OCC`, the Potency is reported as “inactive”.
In the case of `COC(=O)[C@@]12CCCCN1[C@H](c1ccc(-c3cccc(Cl)c3)c(OC)c1)[C@@H]1C(=O)N(C)C(=O)[C@@H]12`, the Potency is reported as inconclusive [cytotoxic, single point].
For `COc1ccccc1/C=C1\SC(=O)N(CCC(=O)N2CCCCC2CCO)C1=O` (stereo not drawn), the Potency was inconclusive [rising, full curve, poor fit].
With `O=C(Nc1ccccc1N1CCCCC1)c1ccc(Cl)c([N+](=O)[O-])c1` the Potency was inconclusive [cytotoxic, single point].
In the case of `COc1ccc(NC(=O)c2cc3ccccc3o2)cc1OC`, the Potency is reported as inconclusive [rising, partial curve].
For `COc1ccccc1C(=O)Nc1nc2cc3c(cc2s1)OCCO3`, the Potency was inconclusive [cytotoxic, single point].
With `Cc1ccc(-c2cc(C(=O)N3CCc4ccccc4C3)[nH]n2)cc1C` the Potency was “inactive”.
For `c1ccc2c(c1)oc1c(NCc3ccc4c(c3)OCO4)ncnc12`, the Potency was “inactive”.
In the case of `Cc1ccc(S(=O)(=O)NCC2CCC(C(=O)NCc3cccnc3)CC2)cc1` (stereo not drawn), the Potency is reported as “inactive”.
With `Cc1ccc(S(=O)(=O)/N=C2\C=C(Nc3cccc(C(=O)O)c3)C(=O)c3ccccc32)c(C)c1` the Potency was active: 10.3 µM.
With `CCOC(=O)c1[nH]c(C)c(/C(O)=C2\C(=O)C(=O)N(CCCN(CC)CC)C2c2cccnc2)c1C` (stereo not drawn) the Potency was inconclusive [rising, partial curve, poor fit].
For `CC(C)OP(=O)(OC(C)C)C(NC(=O)c1ccc(Br)cc1)c1ccccc1` (stereo not drawn), the Potency was active: 20 µM.
With `Cc1cc2oc(=O)ccc2cc1[N+](=O)[O-]` the Potency was “inactive”.
In the case of `CC(C)(C)c1ccc(S(=O)(=O)NC(=O)C2(C)CCN2C(=O)C2CC2)cc1` (stereo not drawn), the Potency is reported as inconclusive [rising, partial curve, poor fit].
With `CSc1ccccc1NC(=O)CN(c1cccc(C)c1)S(C)(=O)=O` the Potency was inconclusive [cytotoxic, single point].
In the case of `O=C(O)COc1ccc(/C=C/c2nc3ccc([N+](=O)[O-])cc3s2)cc1`, the Potency is reported as inconclusive [cytotoxic, single point].
For `Nc1ccc(Nc2ccccc2)cc1`, the Potency was inconclusive [cytotoxic, single point].
With `COc1ccc(CC(=O)Nc2nnc(CC(C)C)s2)cc1S(=O)(=O)N1CCOCC1` the Potency was “inactive”.
In the case of `COc1ccc(C)cc1N(CC(=O)Nc1cccc(N(C)S(C)(=O)=O)c1)S(C)(=O)=O`, the Potency is reported as inconclusive [cytotoxic, single point].
With `CC1(C)CC(=O)N(CC(=O)NCc2ccccc2)c2ccccc2S1(=O)=O` the Potency was “inactive”.
In the case of `COc1cc2nc(NC(=O)c3ccc(F)cc3Cl)sc(=O)c2cc1OC`, the Potency is reported as “inactive”.
For `Nc1ccc(OC(=O)Nc2ccc(O)cc2)cc1`, the Potency was inconclusive [cytotoxic, single point].
For `Cc1ccc(OCC(=O)N2CCN(c3nnc(-c4ccccc4)c4ccccc34)CC2)cc1`, the Potency was inconclusive [cytotoxic, single point].
For `CCC(CO)Oc1cc(NCc2ccccc2Cl)c2ncn(C(C)C)c2c1` (stereo not drawn), the Potency was inconclusive [cytotoxic, partial curve, poor fit].
With `O=C(O)C(=O)/C(=C\c1cccc2ccccc12)c1ccc2ccccc2n1` the Potency was inconclusive [cytotoxic, single point].
In the case of `CCN1CCc2c(sc(NC(=O)COc3ccccc3)c2C(=O)OC)C1`, the Potency is reported as inconclusive [cytotoxic, single point].
In the case of `Cc1ccc(C)c(NC(=O)c2cc(-c3cc(C)ccc3O)n[nH]2)c1`, the Potency is reported as active: 32.6 µM.
With `Cc1ccc2nc(N3C(=O)C(O)=C(C(=O)c4ccco4)C3c3ccc(C)o3)sc2c1` (stereo not drawn) the Potency was inconclusive [cytotoxic, single point].
In the case of `CCCCn1nnnc1C1(C)CCC(=O)N1CCCn1ccnc1` (stereo not drawn), the Potency is reported as inconclusive [cytotoxic, single point].
For `COc1cc(/C=C/C(=O)c2ccc(Cl)s2)cc(OC)c1O`, the Potency was inconclusive [cytotoxic, single point].
With `C(=N\Nc1nc2ccccc2[nH]1)/c1ccccn1` the Potency was inconclusive [cytotoxic, single point].
With `O=C(NC(=S)NNC(=O)c1ccccc1O)c1cccs1` the Potency was inconclusive [cytotoxic, partial curve].
With `COc1ccccc1CNC(=O)C1(C)CCN1C(=O)C1(c2ccccc2)CC1` (stereo not drawn) the Potency was “inactive”.
With `CC(C)CC(=O)Nc1ccc(C(=O)COC(=O)Cc2n[nH]c(=O)c3ccccc23)cc1` the Potency was “inactive”.
In the case of `CN(CC1CCCO1)S(=O)(=O)c1ccc(C(=O)Nc2nnc(-c3ccccc3)o2)cc1` (stereo not drawn), the Potency is reported as inconclusive [cytotoxic, full curve].
For `O=S(=O)(Nc1ccc(Cl)cc1NS(=O)(=O)c1ccccc1)c1ccccc1`, the Potency was inconclusive [cytotoxic, partial curve].
With `Cc1ccc(Cn2c(SCC(=O)Nc3cc(C)on3)nc3ccccc3c2=O)cc1` the activity, negative = less viability was inconclusive: 7.18% [cytotoxic].
In the case of `Cc1nn(-c2ccccc2)c(C)c1/C=N/NC(=O)c1cc(-c2cccs2)[nH]n1`, the Potency is reported as inconclusive [cytotoxic, full curve].
For `N#CC1=C(N)NC(=S)C(C(N)=O)C1c1ccc([N+](=O)[O-])cc1` (stereo not drawn), the Potency was “inactive”.
With `C[C@H](O)[C@@H]1CN2CCc3c([nH]c4ccc(-c5ccc6c(c5)OCO6)cc34)[C@@H]2C[C@@H]1N(C)C(=O)Nc1ccc(F)cc1` the Potency was inconclusive [cytotoxic, single point].
For `CN(CCC#N)c1ccc(C=C(C#N)c2cccc(C(F)(F)F)c2)cc1`, the Potency was inconclusive [cytotoxic, single point].
For `COC(=O)[C@]1(C)N[C@H](CN(C)C(=O)Nc2ccc(OC)cc2)[C@@H]2C(=O)N(Cc3ccccc3)C(=O)[C@@H]21`, the Potency was “inactive”.
In the case of `COc1ccc(N(CC(=O)Nc2ccccc2OC)S(=O)(=O)c2ccc(NC(C)=O)cc2)cc1`, the Potency is reported as inconclusive [cytotoxic, full curve].
With `CCCCCCN1C[C@H](O)[C@@H](n2cc(-c3ccc(F)cc3)nn2)C[C@@H]1c1ccc(Cl)cc1` the Potency was “inactive”.
With `COc1ccc(C(=O)N(C)C2CCCN(Cc3ccccc3F)C2)cc1C` (stereo not drawn) the Potency was “inactive”.
For `O=C1NC(=NCc2ccccc2)S/C1=C/c1ccc(O)cc1`, the Potency was inconclusive [cytotoxic, single point].
With `Cc1cccn2c(=O)c3cc(C(=O)NC(C)c4ccccc4)c(=N)n(CCCn4ccnc4)c3nc12` (stereo not drawn) the Potency was inconclusive [cytotoxic, partial curve].
In the case of `Cc1ccc(NC(=O)C(=O)NCc2ccco2)c(C)c1`, the Potency is reported as inconclusive [rising, partial curve, poor fit].
With `S=C(Nc1ccc(Br)cc1)NC1CCN(Cc2ccccc2)CC1` the Potency was inconclusive [cytotoxic, single point].
For `NC(c1ccccc1)c1csc(NC(=O)Nc2ccccc2Oc2ccccc2)n1` (stereo not drawn), the Potency was inconclusive [cytotoxic, single point].
For `O=[N+]([O-])c1cc([N+](=O)[O-])c2n[nH]c(-c3ccccc3)c2c1`, the Potency was “inactive”.
In the case of `O=c1c2cc(F)ccc2sn1-c1ccccc1Cl`, the Potency is reported as inconclusive [cytotoxic, single point].
In the case of `COc1ccc(C=O)c2[nH]c3c(Cl)ncnc3c12`, the Potency is reported as “inactive”.
With `CC(=O)c1cccc(NC(=O)C2C3C=CC(C4CC34)C2C(=O)O)c1` (stereo not drawn) the Potency was “inactive”.
With `Cc1cccc(NC(=O)CCC(=O)N/N=C/c2ccc(O)cc2O)c1` the Potency was inconclusive [cytotoxic, single point].
For `O=C(CSc1nnc2ccccn12)Nc1cccc(S(=O)(=O)N2CCOCC2)c1`, the Potency was “inactive”.
For `COc1cccc(-c2nc(NCc3ccco3)c3ccccc3n2)c1O`, the Potency was inconclusive [cytotoxic, single point].
In the case of `CCOC(=O)c1c(NC(=O)CN2CCN(C)CC2)sc(C(=O)Nc2ccccc2)c1C`, the Potency is reported as inconclusive [cytotoxic, partial curve].
For `COc1cc(-c2coc3c(C(=O)NCc4ccncc4)cccc23)ccc1O`, the Potency was “inactive”.
With `Cc1ccc(NC(=O)N2CCCN(Cc3ccc(F)cc3)C2)cc1C` the Potency was active: 14.6 µM.
For `COc1ccc(/C=C/C(=O)Nc2ccccc2C)cc1S(=O)(=O)N1CCOCC1`, the Potency was active: 13 µM.
With `Cn1c(=O)c2c(nc(SCCN3CCCCC3)n2Cc2ccc(Cl)cc2)n(C)c1=O` the Potency was inconclusive [cytotoxic, partial curve].
In the case of `Cc1cccc(C(=O)NNC2=C(C(=O)C(F)(F)F)CCC2)c1O`, the Potency is reported as active: 20.6 µM.
For `CCOc1ccc(C(=O)N/N=C(\c2ccccc2)c2ccccn2)cc1`, the Potency was inconclusive [cytotoxic, full curve].
With `O=S(=O)(Cc1ccc(Cl)cc1)N1CCCC1` the Potency was inconclusive [rising, partial curve, poor fit].
For `C[C@@]12C(=O)Nc3ccccc3C(=O)N1[C@H]1c3cc(Br)ccc3OC[C@@H]1[C@@H]2c1ccccc1`, the Potency was inconclusive [cytotoxic, full curve].
For `COc1ccc(-c2cn(-c3ccccc3)c3[n+]2CCS3)cc1`, the Potency was inconclusive [cytotoxic, partial curve].
